# According to PubChem BioAssay AID2675 (National Center for Advancing Translational Sciences (NCATS), 2010):
# The campaign covered roughly 280,000 compounds. About 100 (0.036%) were called active. The inconclusive results got no clear call from the source; some entries with a clear call stand among them for comparison. Calls come from the whole dose curve; as a rule, active = well fitted inhibition curve with a large enough effect in the signal ratio, with a control signal flat (not every such curve was filed as active); inconclusive = small, poorly fitted or top-dose-only effect, or effect the other way, or a change in a side signal; inactive = no such curve, though single readings can be large or run the other way; the % refers to the signal ratio. Potencies of inconclusive entries are doubtful fits and often do not repeat. “Side channel” marks fits to a control or component signal instead of the main read-out.
# Biological target: Muscleblind-like protein 1 (Homo sapiens) (UniProt Q9NR56)
# Chain of UniProt Q9NR56 (Q9NR56 whole entry, looked up): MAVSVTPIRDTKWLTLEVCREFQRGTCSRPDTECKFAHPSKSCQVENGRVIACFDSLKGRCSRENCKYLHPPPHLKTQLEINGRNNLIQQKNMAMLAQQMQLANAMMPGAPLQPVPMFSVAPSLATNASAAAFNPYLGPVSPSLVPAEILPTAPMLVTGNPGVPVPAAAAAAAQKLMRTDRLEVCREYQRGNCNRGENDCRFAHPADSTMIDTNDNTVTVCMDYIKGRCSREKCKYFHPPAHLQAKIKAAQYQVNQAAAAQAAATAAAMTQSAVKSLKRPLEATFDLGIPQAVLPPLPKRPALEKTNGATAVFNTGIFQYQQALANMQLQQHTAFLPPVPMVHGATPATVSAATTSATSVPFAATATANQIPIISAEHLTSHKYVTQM
# Assay: qHTS Assay for Inhibitors of MBNL1-poly(CUG) RNA binding
# Conditions: TR-FRET MBNL1-His/biotin-(CUG)12 binding, 665/545 ratio; series mostly up to 57.5 µM
# In short: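 Compound titration spanned 92 nM–58 uM against the MBNL1-His/biotin-(CUG)12 complex. After 60 min at room temperature with 5 nM streptavidin-XL665 and 0.055 ng/ul terbium anti-His, ratiometric 665/545 nm emission (Ex 340 nm) normalized to controls.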
# Potency is the fitted concentration of half-maximal effect; tags give direction and shape of the fitted curve or compound fluorescence and quenching.
row,Structure (SMILES),Potency
1,O=C(N1CCCCCC1)n1c(Cc2ccccc2)nc2ccccc21,"inconclusive: 7.94 µM [quencher, side channel, single point]"
2,CC(=O)Nc1ccc(NC(=O)C(C)O/N=C/c2cccc([N+](=O)[O-])c2)cc1 (stereo unspecified),"inconclusive: 15.8 µM [quencher, partial curve]"
3,O=c1[nH]c2cc(NCCO)c([N+](=O)[O-])cc2[nH]1,"inconclusive: 39.8 µM [quencher, single point]"
4,Oc1ccccc1C1=Nc2nc3ccccc3n2C(c2ccccc2)C1 (stereo unspecified),"inconclusive: 22.4 µM [quencher, side channel, partial curve]"
5,N#Cc1nc(-c2cccc3ccccc23)oc1NCCN1CCOCC1,"inconclusive: 17.8 µM [quencher, side channel, partial curve]"
6,Cc1cc(/C=C2/SC(=O)NC2=O)c(C)n1-c1ccc(N2CCOCC2)cc1,"inconclusive: 7.08 µM [quencher, side channel, single point]"
7,CCOC(=O)/C(C#N)=C\c1ccc(O)c(OC)c1,"inconclusive: 3.55 µM [quencher, side channel, full curve]"
8,N#Cc1cc([N+](=O)[O-])c(-n2nnc3ccccc32)c([N+](=O)[O-])c1,"inconclusive: 31.6 µM [quencher, side channel, partial curve]"
9,O=C(NCc1ccco1)c1ccccc1NS(=O)(=O)c1ccc(Cl)s1,inactive
10,Cc1ccc(NC(=O)CCS(=O)(=O)c2cccc3nonc23)cc1Cl,"inconclusive: 1.41 µM [quencher, side channel, full curve]"
11,N#Cc1c(-c2cccc(F)c2)cc(-c2ccccc2)nc1Br,inactive
12,Cc1ccccc1/C=C/c1cc[n+](C)cc1,"inconclusive: 11.2 µM [quencher, partial curve]"
13,Cc1cc(Nc2ccc(Cl)cc2)nc(-c2ccccc2O)n1,"inconclusive: 39.8 µM [fluorescent, side channel, single point]"
14,CC(C)(O)c1[nH]c2cc(C(F)(F)F)ccc2c1C(C)(C)O,inactive
15,N#C/C(C(N)=O)=c1/ccc2c(c1)N1C3=C(CCCC3)CC3CCCCC31N=2 (stereo unspecified),"inconclusive: 3.16 µM [quencher, side channel, full curve]"
16,O=[N+]([O-])c1cc2c(cc1Br)CCN2,"inconclusive: 3.98 µM [quencher, side channel, partial curve]"
17,Cc1nn(-c2ccccc2)c2c1C(c1cccnc1)N1C=C(S(=O)(=O)N3CCCCC3)C=CC1=N2 (stereo unspecified),"inconclusive: 28.2 µM [quencher, side channel, partial curve]"
18,O=c1[nH][nH]c2cc(=O)n(-c3ccc(Cl)cc3)nc12,"inconclusive: 22.4 µM [quencher, side channel, partial curve]"
19,O=C1N=C(N2CCCC2C(=O)O)S/C1=C\c1ccco1 (stereo unspecified),"inconclusive: 20 µM [quencher, side channel, partial curve]"
20,O=C(NCCc1c[nH]c2ccccc12)C(=O)NCC(c1cccnc1)N1CCN(c2ccccc2)CC1 (stereo unspecified),inactive
21,COc1cc(CN2CCN(c3cccc(C)c3C)CC2)cc([N+](=O)[O-])c1O,"inconclusive: 28.2 µM [quencher, side channel, partial curve]"

row,Structure (SMILES),Potency
1,COC(=O)[C@H](C)NC(=O)Nc1cccc(C(F)(F)F)c1,inactive
2,CC(C)N=C1NN=C(c2ccc(F)cc2)CS1,inactive
3,COC(=O)CSC1=C(C#N)C(c2ccc(C(C)C)cc2)CC(=O)N1 (stereo unspecified),inactive
4,Cc1cnnn1-c1cccc([N+](=O)[O-])c1,"inconclusive: 11.2 µM [quencher, side channel, partial curve]"
5,COc1ccc2nc(-c3ccc(Cl)cc3)cc(C(=O)O)c2c1,inactive
6,O=C(Nc1nnc(-c2ccccc2)o1)c1ccc(Cl)cc1,inactive
7,Cc1c(Cl)cccc1Nc1nc(NCCO)c2ccccc2n1,"inconclusive: 126 µM [inhibitor, partial curve]"
8,c1cc2cn[nH]c2cc1NC1CCCCCC1,"inconclusive: 17.8 µM [quencher, side channel, partial curve]"
9,C=CCOn1c(=O)c(-c2ccc(C)cc2)[n+]([O-])c2ccccc21,"inconclusive: 3.55 µM [quencher, side channel, full curve]"
10,N=c1c(C(=O)NCc2ccco2)cc2c(=O)n3ccccc3nc2n1Cc1ccc(Cl)cc1,"inconclusive: 8.91 µM [quencher, side channel, partial curve]"
11,O=C(CSc1nc2nc(-c3cccs3)cc(C(F)(F)F)c2c(=O)[nH]1)NCc1ccco1,"inconclusive: 12.6 µM [quencher, side channel, partial curve]"
12,CCN1/C(=C/c2cccc[n+]2C)Sc2ccc(OC)cc21,"inconclusive: 14.1 µM [quencher, side channel, partial curve]"
13,CC(=O)c1cccc2c(O)c(C3=Nc4ccccc4C3=O)[nH]c12,"inconclusive: 31.6 µM [quencher, side channel, partial curve]"
14,Cc1ccc(NC2=C(NC(=O)c3ccccc3)C(=O)c3ccccc3C2=O)cc1Cl,"inconclusive: 3.16 µM [quencher, partial curve]"
15,COCCNC(=S)NNC(=O)c1cc(-c2cccnc2)nc2ccccc12,"inconclusive: 20 µM [quencher, side channel, single point]"
16,CCC(C)(C)NC(=O)C(c1cccs1)N(CC1CCCO1)C(=O)Cn1nnc2ccccc21 (stereo unspecified),inactive
17,OCCn1nc2c3ccccc3nc-2n(-c2ccccc2)c1=S,"inconclusive: 2 µM [quencher, side channel, full curve]"
18,c1ccc2c(c1)[nH]c1nc3nncn3nc12,"inconclusive: 12.6 µM [quencher, side channel, partial curve]"
19,COc1ccc(C(=O)Nc2ccc(C(=O)O)cc2NC(=O)c2ccc(OC)cc2)cc1,inactive
20,CC(C)Cc1csc(NC(=O)c2ccccc2Cl)c1C(=O)O,"inconclusive: 17.8 µM [fluorescent, side channel, partial curve]"
